The record followed here is publication PMC5836133.

The other results are listed elsewhere or left out. At the low end of the ranking the order means little.

The subject of the assay is T1, GST-NbGlk1(82-244).
T1 sequence: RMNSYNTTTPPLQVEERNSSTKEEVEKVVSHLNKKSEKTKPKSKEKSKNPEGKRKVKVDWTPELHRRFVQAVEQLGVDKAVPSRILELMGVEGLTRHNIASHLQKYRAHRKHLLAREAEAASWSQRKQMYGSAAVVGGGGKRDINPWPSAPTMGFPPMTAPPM
In words: protein-binding microarray.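 Note: rank-based score ranging −0.5 to +0.5 with E above 0.45 taken as significant binding.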 Particulars: NbGlk1 is a Golden2-like transcription factor of Nicotiana benthamiana; high values mean tight binding; most listed sequences are background and not binding sites; double strand, one strand shown.
The sequence ATCGGGCC showed a binding signal of -0.178 E-score.
For the sequence ACATTCAA, the binding signal turned out to be 0.0591 E-score.
Sequence ATCTACAA gave a binding signal of 0.205 E-score.
For ACAGTCAC the value was -0.174 E-score.
For AAAGGTCA the value was -0.218 E-score; for ACCTACAG, -0.164 E-score; for ATTACCGA, 0.152 E-score.
Turning to AACGTTAA, the binding signal worked out at 0.0623 E-score.
The same measure for ATACCCGA: 0.0608 E-score; for ATAAGTTG: -0.000199 E-score; for ACTGGTCC: -0.226 E-score.
For ATGCGGCG the value was -0.13 E-score; for CAAGAAGC, -0.115 E-score.
For ATCAATCA the value was 0.169 E-score.
In the case of ACGGGAGG, the binding signal is -0.0577 E-score.
AGATGATG displayed a binding signal of -0.0199 E-score.
Take ACTTCCTC: the binding signal was -0.162 E-score.
Consider AGACTCCG, for which the binding signal is -0.162 E-score.
AACTCGGG had a binding signal of -0.0923 E-score.
With AACCTCAG, the binding signal is -0.154 E-score.
AATGTACC returned a binding signal of -0.0313 E-score.
AGGAACGC registered a binding signal of -0.21 E-score.
As for ACCATAAT, the binding signal was determined as 0.18 E-score.
The same measure for AATTAGCA: 0.121 E-score; for ACACGCCT: -0.155 E-score; for AACGTGAT: 0.156 E-score.
For ACCGAGCT the value was -0.258 E-score; for AGGATCCG, 0.26 E-score; for ACCGTCCC, -0.0387 E-score.
For ACCAAGCT the value was -0.133 E-score; for ATTGACTC, -0.122 E-score; for ACTCGGAT, 0.252 E-score.
AATGATCC: the binding signal turned out to be 0.0806 E-score.
The sequence ATCAAGAG displayed a binding signal of 0.214 E-score.
The same measure for ACTTCCAA: -0.037 E-score; for AGATTAGA: 0.129 E-score.
As for AGCCCATG, the binding signal is -0.165 E-score.
ATCGCTCC yielded a binding signal of 0.188 E-score.
For ACTGCAAC the value was 0.0226 E-score.
The same measure for AATGCAAA: 0.0558 E-score; for ACAGCGCT: -0.0789 E-score; for AGATATCG: 0.462 E-score.
The same measure for AGTCAGGA: 0.144 E-score.
As to ATGGAACG, the binding signal is -0.104 E-score.
The same measure for AAAATCTA: 0.458 E-score; for CACCATGC: -0.117 E-score.
For ATCAGAAC the value was 0.162 E-score; for AGGTATAT, 0.0144 E-score; for ACATAGTA, 0.0347 E-score.
The same measure for ATCCTCGC: 0.205 E-score; for AAGTGACA: 0.00237 E-score.
Turning to AACTCGGA, the binding signal was -0.103 E-score.
For AATTTATC the value was 0.113 E-score; for AAAGCGGA, 0.11 E-score.
The same measure for AAACGCAC: -0.197 E-score; for ATAAGCCC: -0.228 E-score; for ATTGCACC: 0.222 E-score.
For AAATATAC the value was 0.225 E-score.
AGAGAGAA had a binding signal of -0.0707 E-score.
Consider ACAACGCT, for which the binding signal was -0.15 E-score.
For AAGCGTCA the value was -0.0257 E-score; for ACTCGCAG, -0.0533 E-score; for AGCGCAAA, 0.00611 E-score.
The same measure for AAAGTGGC: -0.175 E-score.
ACCAACGT: the binding signal was -0.138 E-score.
For AAATCACT the value was 0.26 E-score; for ATACTGTG, 0.129 E-score; for CAATGTGC, -0.168 E-score.
The same measure for AGCGGTGC: -0.252 E-score; for AGGGGTGC: -0.26 E-score.
The same measure for CAACTATC: -0.0754 E-score; for CACATATC: 0.207 E-score; for AATTTTCA: 0.228 E-score.
In turn, AAGCACCA registered a binding signal of -0.247 E-score.
For AGAGCTTG the value was -0.231 E-score.
The same measure for AAAGCACC: -0.243 E-score; for ACTTCATA: 0.0422 E-score.
Sequence AGTAATTC yielded a binding signal of 0.0662 E-score.
The sequence AAGAAGGC returned a binding signal of -0.221 E-score.
With CAGAGGAC, the binding signal was -0.162 E-score.
In the case of CAACTTCA, the binding signal was 0.0464 E-score.
The same measure for ACCCATAT: 0.129 E-score; for CACGGGAG: -0.104 E-score; for CAAACCGA: -0.0156 E-score.
ATGCGCGA: the binding signal was determined as 0.128 E-score.
In the case of ATTCTCAC, the binding signal turned out to be 0.299 E-score.
For ACCCGTCT the value was -0.146 E-score.
Turning to ACACAGTA, the binding signal came out at 0.0389 E-score.
The same measure for CACCTTAG: -0.152 E-score; for AGCGCCTG: -0.128 E-score; for ATAACACC: 0.0245 E-score.
The same measure for AAGTATGT: 0.0353 E-score; for AACTCTTA: 0.00102 E-score.
For the sequence ACGTGGTC, the binding signal is -0.201 E-score.
The same measure for ATAATCAC: 0.214 E-score.
For ACCTGGTC the value was -0.255 E-score.
For ACAAGTTG the value was -0.124 E-score; for AGGGGCTC, -0.297 E-score; for AAAGTAAA, 0.0977 E-score.
In the case of AATACACA, the binding signal turned out to be 0.0883 E-score.
For the sequence ACTGAACT, the binding signal was -0.0987 E-score.
For ACCGATTC the value was 0.21 E-score.
In turn, AAAAACCC displayed a binding signal of -0.0323 E-score.
The sequence CAACCGCG returned a binding signal of 0.0348 E-score.
For ACGTGGAT the value was 0.283 E-score; for AGATACTA, 0.194 E-score; for ATACTTCC, 0.018 E-score.
CAAGCGGG: the binding signal is -0.129 E-score.
On to AACTCACT, for which the binding signal was -0.0993 E-score.
The same measure for ATATCCCA: 0.371 E-score; for AACGAGTG: -0.0124 E-score; for AGCCGGAA: -0.138 E-score.
The same measure for AACATTCT: 0.0693 E-score; for ACCTAGGT: -0.0754 E-score.
The same measure for ATTCGTAA: 0.208 E-score.
For the sequence ACGAGCAG, the binding signal was -0.0897 E-score.
The same measure for AGGTTCCA: -0.159 E-score.
Take ATGTGCAG: the binding signal was -0.0877 E-score.
For ACTGTGCC the value was -0.163 E-score.
For ACGAGCGA the value was -0.0224 E-score.
For the sequence ATGCAAGC, the binding signal was -0.184 E-score.
Regarding ATGACTCC, the binding signal is -0.135 E-score.
The same measure for ATCTTATC: 0.288 E-score.
In the case of ACAAAAAC, the binding signal was -0.00308 E-score.
In turn, ACTGTGAT had a binding signal of 0.208 E-score.
For ATCAGCAA the value was 0.124 E-score.
For ACACATCT the value was -0.0197 E-score; for AGACGCAT, -0.0907 E-score; for AATAAGAC, -0.167 E-score.
The same measure for ATATCGTA: 0.364 E-score; for ACGATAGC: -0.128 E-score.
On to ATGTGCGG, for which the binding signal is -0.0928 E-score.
For ACTGATCA the value was 0.0257 E-score; for AATACGAC, 0.031 E-score; for AACGCCGT, -0.196 E-score.
In turn, AGAATGAG returned a binding signal of -0.0766 E-score.
For ACAGTGTG the value was -0.179 E-score; for ACACATAA, 0.0601 E-score; for AAACTTTC, -0.0209 E-score.
Regarding CACCCGAA, the binding signal was -0.139 E-score.
For AATCGAGG the value was 0.197 E-score; for AAGTTTCT, -0.148 E-score; for CACAAGCG, 0.0164 E-score.
On to AGCCGTGA, for which the binding signal was -0.0714 E-score.
For AGTTCGTC the value was -0.0902 E-score; for AAAATTAA, 0.184 E-score; for AAACTGAT, 0.152 E-score.
The same measure for AGGCCACC: -0.194 E-score; for ACACTTGA: 0.00963 E-score.
Regarding ACAAGTAT, the binding signal amounted to 0.103 E-score.
With CAATATCG, the binding signal amounted to 0.306 E-score.
As to ACCACCCG, the binding signal was -0.169 E-score.
For AGGACTAG the value was -0.111 E-score.
As to AACTCAAC, the binding signal was found to be 0.0205 E-score.
For ACGTACGA the value was -0.0205 E-score; for AGAGTCCG, -0.292 E-score.
For AAGATACC the value was 0.228 E-score; for AACCGATA, 0.16 E-score; for AGCTGGTG, -0.198 E-score.
Sequence AGCTTAGG gave a binding signal of -0.169 E-score.
The same measure for ACTTAAAG: -0.05 E-score; for AGCCGCCC: -0.309 E-score; for AGGCTAGG: -0.252 E-score.
The same measure for ATCCGCGC: 0.215 E-score; for AAACAACG: -0.0293 E-score; for ATGTAAGA: 0.0949 E-score.
The same measure for AATCTATA: 0.402 E-score; for ACGTAATA: 0.285 E-score; for ATGACTGA: -0.135 E-score.
On to ACTGAGAC, for which the binding signal was -0.074 E-score.
Regarding ACTAGAAA, the binding signal worked out at 0.12 E-score.
AGAGACGG displayed a binding signal of -0.364 E-score.
